# Source: PubChem BioAssay AID588453 (National Center for Advancing Translational Sciences (NCATS), 2011)
# Hit rate of the full screen: of about 390,000 compounds, about 4,000 (1%) were called active. The shares of active, inactive and inconclusive entries below differ from those in the screen. Calls follow the shape of the dose curve; as a rule, active = well fitted inhibition curve with a large enough effect; inconclusive = small, poorly fitted or top-dose-only effect; inactive = no such curve, though single readings can be large or run the other way. Where the call is inconclusive, the potency comes from a doubtful curve fit. The source holds several records for some structures; these can differ, active in one and inactive in another.
# Target: Thioredoxin reductase 1, cytoplasmic (Rattus norvegicus) (UniProt O89049)
# Assay: qHTS Assay for Inhibitors of Mammalian Selenoprotein Thioredoxin Reductase 1 (TrxR1): qHTS; also: nearly all actives have a fitted effect of over 65% in size
# Conditions: recombinant rTrxR1, NADPH fluorescence consumption, selenite substrate; series mostly up to 114 µM; activity change, negative = inhibition: at the top concentration
# Method in brief: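 Rat TrxR1 (90 nM in the dispensed reagent) was pre-reduced with 400 uM NADPH for 5 min at room temperature, then incubated with compound for 15 min. After 400 uM selenite was added, NADPH fluorescence (Ex 340/Em 450 nm) was followed for 8 min.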
# % is scaled to controls: 0 for no effect and ±100 for the full control effect; potency is read from the fitted curve at half-maximal effect; tags tell the direction and shape of the fitted curve.
# UniProt O89049, sequence (O89049 whole entry, looked up): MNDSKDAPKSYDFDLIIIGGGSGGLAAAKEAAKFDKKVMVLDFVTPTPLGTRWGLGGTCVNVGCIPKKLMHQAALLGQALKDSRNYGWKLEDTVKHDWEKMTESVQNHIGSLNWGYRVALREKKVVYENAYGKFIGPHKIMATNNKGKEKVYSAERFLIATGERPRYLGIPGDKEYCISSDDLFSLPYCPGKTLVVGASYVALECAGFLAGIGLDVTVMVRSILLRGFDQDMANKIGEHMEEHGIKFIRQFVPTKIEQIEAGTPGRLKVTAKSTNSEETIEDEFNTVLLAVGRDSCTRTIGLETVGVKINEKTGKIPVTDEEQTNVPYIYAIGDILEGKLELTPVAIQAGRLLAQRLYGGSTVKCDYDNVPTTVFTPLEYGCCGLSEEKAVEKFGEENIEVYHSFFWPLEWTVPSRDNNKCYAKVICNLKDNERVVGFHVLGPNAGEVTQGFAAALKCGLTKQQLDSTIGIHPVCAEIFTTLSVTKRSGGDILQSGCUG
SMILES,Potency,"activity change, negative = inhibition"
COCCn1c(SCC(=O)c2ccc3c(c2)OCCO3)nnc1-c1ccoc1C,active: 44.7 µM,
O=C1CSC(=Nc2ccc(Cl)cc2)N1Cc1ccco1,"inconclusive: 56.2 µM [inhibitor, partial curve]",
CCc1cccc(NC(=O)CSC2=Nc3ccccc3N=C(c3ccc(F)cc3)C2)c1,,inactive: 22.6% [at 57.1 µM]
COc1cc(NC(=O)CN(c2ccc(C)cc2)S(=O)(=O)c2cccc3nonc23)cc(OC)c1,,inactive: 20.2%
O=[N+]([O-])c1ccc(Sc2ccc(Cl)c(Cl)c2)nc1,,inactive: -16.6%
CCc1nn(CC(=O)NCCc2ccc(OC)cc2OC)c(=O)c2cc3c(OC)cccc3n12,,inactive: 0.963%
Cc1ccc(CCNC(=O)CS(=O)Cc2nc(-c3cccc(C)c3)oc2C)cc1 (stereo not given),"inconclusive: 22.4 µM [inhibitor, partial curve]",
CN(CC(=O)Nc1ccc(F)cc1)C(=O)c1cn(-c2ccccc2)nc1-c1cccs1,,inactive: 10.1%
O=C(CSc1nnc2sc3ccccc3n12)c1ccco1,"inconclusive: 12.6 µM [inhibitor, full curve]",
O=C(CCS(=O)(=O)c1ccccc1)NCc1ccccc1,"inconclusive: 22.4 µM [inhibitor, full curve]",
COC(=O)c1cncn1Cc1ccccc1,,inactive: 0.627% [at 2.29 µM]
COc1ccccc1NC(=O)C1Cc2ccccc2CN1C(=O)c1ccco1 (stereo not given),"inconclusive: 79.4 µM [inhibitor, partial curve, poor fit]",
O=C(O)/C=C\C(=O)Nc1cc(O)ccc1[N+](=O)[O-],"inconclusive: 39.8 µM [inhibitor, partial curve]",
CC1CN(c2cc(=O)n(-c3cccc(Br)c3)c(=O)[nH]2)CC(C)O1 (stereo not given),"inconclusive: 15.8 µM [inhibitor, partial curve]",
OCCNc1ncnc2c1c(-c1ccccc1)c(-c1ccccc1)n2Cc1ccco1,"inconclusive: 14.1 µM [inhibitor, partial curve, poor fit]",
O=C(Nc1ccccc1C(=O)N/N=C/c1ccc(F)cc1)c1ccccc1Br,,inactive: 6.83%
COc1ccc(NC(=O)c2ccc3snnc3c2)cc1,,inactive: 7.18% [at 57.1 µM]
CC(C)[N+](C)(CCOC(=O)C1c2ccccc2Oc2ccccc21)C(C)C,inactive,
CCSc1sccc1C1C(C#N)=C(N)N(c2cccnc2)C2=C1C(=O)CCC2 (stereo not given),"inconclusive: 89.1 µM [inhibitor, partial curve, poor fit]",
O=C(CSc1nnc(-c2cccnc2)n1Cc1ccco1)c1ccc(Cl)c(Cl)c1,active: 44.7 µM,
N#Cc1sc2nc(C3CC3)cc(-c3ccccc3)c2c1N,"inconclusive: 44.7 µM [inhibitor, single point]",
c1ccc(C2(CN3CCNC[C@H]3Cc3cccc4ccccc34)CC2)cc1,"inconclusive: 89.1 µM [inhibitor, partial curve, poor fit]",
COc1cc(/C=C2/C(=O)NN(c3ccc(F)cc3)C2=O)cc([N+](=O)[O-])c1O,"inconclusive: 44.7 µM [inhibitor, partial curve, poor fit]",
CC(NC(=O)c1cccc(S(=O)(=O)N(C)c2ccccc2)c1)c1cccnc1 (stereo not given),"inconclusive: 89.1 µM [inhibitor, partial curve, poor fit]",

SMILES,Potency,"activity change, negative = inhibition"
Cc1ccc(S(=O)(=O)n2nc(OC(=O)c3ccco3)cc2N)cc1,"inconclusive: 17.8 µM [inhibitor, single point]",
O=C(Cn1cccc1)N1CCN(C(c2ccccc2)c2ccccc2)CC1,"inconclusive: 22.4 µM [inhibitor, single point]",
O=C(Nc1ccccc1)C1=C(O)CC(c2ccoc2)CC1=Nc1ccccc1 (stereo not given),"inconclusive: 63.1 µM [inhibitor, partial curve, poor fit]",
CCCN(CCC)CCCNC(=O)c1cc2c(=O)n(CC)c3ccccc3c2s1,"inconclusive: 89.1 µM [inhibitor, single point]",
C(=C\c1nc2ccccc2[nH]1)/c1ccccc1,"inconclusive: 50.1 µM [inhibitor, single point]",
COc1ccc(C(=O)CSc2nnc(-c3ccco3)n2C)cc1,"inconclusive: 20 µM [inhibitor, single point]",
COc1cc(-c2nc(C(F)(F)F)c(OC)o2)cc(OC)c1OC,"inconclusive: 44.7 µM [inhibitor, partial curve]",
Nc1ccccc1C#CC(=O)c1ccccc1,"inconclusive: 0.891 µM [inhibitor, full curve, poor fit]",
COc1ccc(N(C(=O)c2ccc(S(=O)(=O)N3CCOCC3)cc2)C2C=CS(=O)(=O)C2)cc1 (stereo not given),,inactive: 21.8%
Cn1cc(Cl)c(C(=O)Nc2nc3ccc([N+](=O)[O-])cc3s2)n1,,inactive: 0.664% [at 57.1 µM]
CCn1c(SCc2ccc(OC)c(F)c2)nc2ccccc2c1=O,,inactive: 24.5%
O=C(CSc1nc2ccccc2o1)N/N=C/c1ccco1,,inactive: 33.2%
O=C(O)Cc1c[nH]c2ccc(O)cc12,active: 10.6 µM,
CN(CCOc1ccccc1)CC(O)COc1ccccc1 (stereo not given),,inactive: 14.4%
CCCN1CCC(=O)N(C(CSc2ccc(OC)cc2)c2ccccc2)CC1 (stereo not given),"inconclusive: 25.1 µM [inhibitor, single point]",
CN(Cc1ccc(C(F)(F)F)cc1)C(=O)C1CC(=O)N(Cc2ccco2)C1 (stereo not given),"inconclusive: 70.8 µM [inhibitor, partial curve]",
C=C1N(C)c2cc([N+](=O)[O-])c(N)cc2C1(C)C,"inconclusive: 14.1 µM [inhibitor, partial curve]",
Cc1ccc(S(=O)(=O)c2nc(-c3ccco3)oc2SC(C)C)cc1,"inconclusive: 44.7 µM [inhibitor, partial curve]",
O=C1C=C(c2ccccc2)C(c2ccccc2)C1O (stereo not given),,inactive: -0.434% [at 11.4 µM]
CCOC(=O)c1cccc(NC(=O)CCS(=O)(=O)c2ccc(Br)s2)c1,inactive,
Cc1cc(C)cc(NC(=O)c2sc3nc(-c4ccccc4)cn3c2C)c1,,inactive: 11.8% [at 57.1 µM]
O=C(c1ccc(-c2ccc([N+](=O)[O-])cc2)o1)N1CCCCC1,"inconclusive: 22.4 µM [inhibitor, full curve]",
Cc1ccc(N(C=NC#N)CC(=O)N2CCN(c3ccccc3)CC2)cc1,"inconclusive: 28.2 µM [inhibitor, single point]",
CC(=O)Nc1ccc(N/C=C2/CCCC2=O)cc1,"inconclusive: 79.4 µM [inhibitor, single point]",

SMILES,Potency,"activity change, negative = inhibition"
CN(C)C(=O)c1ccc(NC(=O)CSc2nnc(-c3cccs3)n2N)cc1,,inactive: 3.45%
Cc1ccc(S(=O)(=O)c2cc(O)ccc2O)cc1C,"inconclusive: 44.7 µM [inhibitor, partial curve]",
Cc1cc(=O)oc2c(CN3CCCC3)c(O)ccc12,active: 17.8 µM,
Cc1ccc(Nc2nnc(-c3ccc(C)c(S(=O)(=O)N4CCCCC4)c3)c3ccccc23)cc1,"inconclusive: 100 µM [inhibitor, single point]",
O=C(Cc1ccccc1)N/N=C/c1ccc([N+](=O)[O-])s1,"inconclusive: 70.8 µM [inhibitor, partial curve]",
Cn1cccc1/C=C1\SC(=S)N(CC(=O)O)C1=O,"inconclusive: 44.7 µM [inhibitor, partial curve, poor fit]",
O=C(CCN1CCCCC1)c1ccc2c(c1)OCCO2,active: 0.316 µM,
Oc1ccc(Cl)cc1-c1cc(-c2ccccc2Cl)[nH]n1,,inactive: -4.81%
O=[N+]([O-])c1cc(Cl)cc(/C=N\Nc2ccccn2)c1O,,inactive: 15.5% [at 57.1 µM]
c1ccc(-n2c(SCc3nc(-c4cccs4)no3)nnc2-c2ccco2)cc1,"inconclusive: 15.8 µM [inhibitor, full curve]",
O=C(COC(=O)c1ccc([N+](=O)[O-])o1)NCCc1ccccc1,"inconclusive: 50.1 µM [inhibitor, partial curve]",
CC(=O)NC(=S)NNC(=O)COc1ccc([N+](=O)[O-])cc1,"inconclusive: 39.8 µM [inhibitor, single point]",
COC(=O)c1ccc(-n2c(C)ccc2-c2ccccc2)cc1,"inconclusive: 25.1 µM [inhibitor, single point]",
Cc1cc(=O)oc2c3c(cc(OCC(=O)NCCC(=O)N[C@@H](C)C(=O)O)c12)OC(C)(C)CC3,"inconclusive: 35.5 µM [inhibitor, single point]",
N#Cc1c(NC(=O)c2ccc(Br)o2)n(-c2ccccc2)c2nc3ccccc3nc12,"inconclusive: 79.4 µM [inhibitor, partial curve, poor fit]",
O=C1CC(c2ccc(F)cc2)CC2=C1C(c1ccc([N+](=O)[O-])o1)Nc1ccccc1N2 (stereo not given),"inconclusive: 50.1 µM [inhibitor, partial curve]",
CC1=NN(c2ccc(Cl)cc2)C(=O)C1C(c1ccccc1O)c1c(C)[nH]n(-c2ccc(Cl)cc2)c1=O (stereo not given),"inconclusive: 79.4 µM [inhibitor, single point]",
COc1cc(/C=C2\SC(=S)N(CC(=O)O)C2=O)ccc1OS(=O)(=O)c1ccc(C)cc1,"inconclusive: 25.1 µM [inhibitor, partial curve, poor fit]",
Cn1c(NNC(=O)/C=C/c2ccc3c(c2)OCO3)cc(=O)n(C)c1=O,,inactive: -20.1%
CCOc1ccc(/C=C(\C#N)C(=O)Nc2sc3c(c2C(=O)OC)C(C(=O)OC)CC3)cc1OC (stereo not given),,inactive: 4.98%
CC1=Nc2cccc3cccc(c23)N1,"inconclusive: 56.2 µM [inhibitor, partial curve, poor fit]",
CC[n+]1c(/C=C2\C=C(C)CC(C)(C)C2)sc2ccccc21,"inconclusive: 20 µM [inhibitor, full curve]",
